# Measurements: PubChem BioAssay AID662 (National Center for Advancing Translational Sciences (NCATS), 2007)
# Screen size: about 71,000 compounds; about 1,800 (2.5%) were called active. This list was built around the results that the source calls inconclusive (neither active nor inactive); the mix of calls is not that of the screen. Calls follow the shape of the dose curve; as a rule, active = well fitted activation curve with a large enough effect in the signal ratio, with a control signal flat (not every such curve was filed as active); inconclusive = small, poorly fitted or top-dose-only effect, or effect the other way, or a change in a side signal; inactive = flat fitted curve, though single readings scatter; the % refers to the signal ratio. Potencies beside an inconclusive call are fits to weak or partial responses and may not hold up.
# Test: Cell signaling CRE-BLA (Fsk stim); as to activity change, negative = inhibition: % of control where 0% means no effect
# Conditions: CHO CRE-bla reporter (cAMP response element driving beta-lactamase), forskolin EC10, beta-lactamase ratio; activity change, negative = inhibition: at 38.2 µM (top of the series) unless noted
# Outline: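 AC50 values, positive or negative, reflect shifts in EC10 NKH 477-induced CRE-bla reporter activity in CHO cells. Incubation lasted 3 h at 37 °C before CCF4 substrate (2 h, room temperature) and ratiometric 460/530 nm reading.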
# Potency is read from the fitted curve at half-maximal effect; tags tell the direction and shape of the fitted curve.
SMILES,"activity change, negative = inhibition",Potency
CCOc1ccccc1-c1nnc(SCC(=O)Nc2ccccc2)o1,inactive: 4.09%,
Cc1nc(N2CCN(Cc3ccccc3)CC2)nc2c1C(=O)CC(c1ccco1)C2 (stereo not drawn),inconclusive: 13.3%,
CCNc1nc(NC(C)C)nc(N(C#N)CCOc2ccc(Cl)cc2Cl)n1,inconclusive: -24.3%,
OCc1c[nH]c2ccccc12,inactive: -19.6%,
COCc1cc(C)nc2sc(C(=O)N3CCN(c4ccccc4)CC3)c(N)c12,,"inconclusive: 12.6 µM [rising, single point]"
COc1ccc(S(=O)(=O)N2CCN(c3c(C)cccc3C)CC2)cc1OC,inactive: 15.5%,
O=C(Cn1c(-c2ccccn2)nc2ccccc21)NCCN1CCOCC1,inconclusive: 2.28%,
O=C(O)C1C2C=CC3(CN(Cc4ccncc4)C(=O)C13)O2 (stereo not drawn),inactive: -4.62%,
Cc1ccc(Cn2ccc(NC(=O)c3noc4c3CCCCC4)n2)cc1,inactive: 5.31%,
O=C(NCCCn1ccnc1)Nc1ccc(Cl)c(Cl)c1,inactive: -1.55%,
CCc1nc2ccccc2c(=O)n1CCCCn1c(CC)nc2ccccc2c1=O,inactive: 6.04%,
Cc1ccc(CNC(=O)CN(C)S(=O)(=O)c2cccc3nsnc23)cc1,inconclusive: 10.5%,
CN(C)CCN(Cc1ccccc1)S(=O)(=O)c1cccc2cccnc12,inactive: -7.22%,
O=c1c2ccccc2nc2sc3ccccc3n12,inactive: 28%,
Cc1ccccc1OCc1nc2ccccc2c(=O)n1/N=C/c1ccco1,inactive: 22.4%,
CCCC/C=C/C(NC(=O)c1ccco1)c1ccccc1 (stereo not drawn),inactive: -3.5%,
CCOC(=O)c1c(NC(=O)Cc2cccs2)sc2c1CCCC2,,"inconclusive: 5.01 µM [rising, full curve]"
Cc1nc(NCc2ccccc2)c2nc(-c3ccccc3)n(CCN3CCOCC3)c2n1,,"inconclusive: 10 µM [rising, partial curve]"
COc1ccc(S(=O)(=O)N2CCN(c3cc(-c4ccccc4)nc4ncnn34)CC2)cc1,inactive: 2.88%,
O=C(NCc1ccco1)c1ccc2c(c1)C(=O)c1ccccc1-2,,"inconclusive: 10 µM [rising, partial curve]"
COc1ccc(CN(Cc2cc3cc4c(cc3[nH]c2=O)OCO4)C(=O)NC2CCCCC2)cc1,,active: 10 µM
Cc1onc(-c2ccccc2Cl)c1C(=O)Nc1cccc2cccnc12,,"inconclusive: 5.01 µM [rising, full curve]"

SMILES,"activity change, negative = inhibition",Potency
CCn1nnc(NC(=O)c2ccccc2Br)n1,inactive: 0.509%,
[Cu].[O-]/N=C1/C(=[OH+])Nc2ccccc21.[O-]Nc1c(O)[nH]c2ccccc12,inactive: 2.78% [at 7.6 µM],
O=c1[nH]c2c(c3c1CCCC3)CCCC2,inconclusive: 6.51%,
COc1ccccc1NC(=O)c1ccc(-c2ccccc2F)o1,,"inconclusive: 3.16 µM [rising, full curve, poor fit]"
COc1ccc(-c2cn3cc(C)ccc3n2)cc1OC,inactive: -1.04%,
N#Cc1c2n(c3c(-c4ccccc4)ncnc13)CCC2,inconclusive: 25.2%,
CSc1nsc(SC)c1NC(=O)OCC1CCCO1 (stereo not drawn),inconclusive: 1.12%,
CN(c1ccc(C(=O)Nc2nccs2)cc1)S(=O)(=O)c1ccccc1,inactive: -8.98%,
CC(C)C(NC(=O)OCc1ccccc1)C(=O)NCC(=O)OC(C)(C)C (stereo not drawn),inactive: -3.8%,
Cc1nc2cnc(N3CCNCC3)nc2n(CCC#N)c1=O,inactive: -2.53%,
CCS(=O)(=O)c1nnnn1-c1ccccc1S(C)(=O)=O,inconclusive: -29.7%,
CCCNC(=O)c1c(N)n(-c2ccc3c(c2)OCO3)c2nc3ccccc3nc12,,active: 0.316 µM
O=C(COc1ncnc2ccccc12)N1CCN(S(=O)(=O)c2ccc(Cl)cc2)CC1,,"inconclusive: 5.01 µM [falling, single point]"
CCOc1ccc(-c2nc(-c3ccc(OC)cc3)no2)cc1OCC,inactive: -2.55%,
CN(C)c1ncc2nc(-c3cccs3)c(=O)n(CCC#N)c2n1,inconclusive: 27%,
C=CCn1c(Cc2cccs2)nnc1SCC(=O)c1cccc(Br)c1,inactive: -6.59%,
Cc1noc(C)c1-c1ccc2ncnc(N3CCOCC3)c2c1,,"inconclusive: 12.6 µM [rising, partial curve]"
COC(=O)c1ccc(N2CCN(C)CC2)c(NC(=O)c2cc3ccccc3o2)c1,inactive: -0.00997%,
COCc1cc(=O)n2c([nH]c3ccccc32)c1C#N,,"inconclusive: 7.94 µM [rising, partial curve]"
CC(C(=O)NC1CCCC1)N(C(=O)c1snc(C(N)=O)c1N)c1ccc2c(c1)OCCO2 (stereo not drawn),inactive: -14.7%,
Cc1nc2scc(-c3cccs3)c2c(=O)o1,inconclusive: -20.2%,
CCc1ccc(CN(C)CCc2ccccn2)cc1,inactive: -0.364%,

SMILES,"activity change, negative = inhibition",Potency
CNC(=O)C1(C)C=CC2(CCCCC2)N1C(C)=O (stereo not drawn),inactive: -8.81%,
O=C(c1cccn2c(=O)c3cc(Br)ccc3nc12)N1CCN(c2ccccn2)CC1,,"inconclusive: 12.6 µM [rising, partial curve]"
C=CCn1c(C)cc(C(=O)CSc2nnc(-c3cccc(S(=O)(=O)N(CC)CC)c3)o2)c1C,inconclusive: 16%,
Cc1ccc2c(c1)cc(CN(Cc1ccco1)C(=O)COc1ccccc1)c1nnnn12,inactive: 2.66%,
O=C(CSCc1c(F)cccc1Cl)NCc1ccco1,inconclusive: -5.73%,
N#Cc1cccc(-c2nc3cnc(N4CCOCC4)nc3n(C[C@H]3CCCO3)c2=O)c1,inconclusive: 20.9%,
CCN(CCNC(=O)C1CCN(S(=O)(=O)c2cccc3cccnc23)CC1)c1ccccc1,inconclusive: -28.6%,
COc1ccc(Oc2ncc3nc(C)c(=O)n(C4CC4)c3n2)cc1,inconclusive: 20.6%,
CCOC(=O)N1CCC(NC(=O)C(C)n2c3ccccc3c3cnn(C)c(=O)c32)CC1 (stereo not drawn),inconclusive: 2.46%,
Cc1c(-c2ccc(O)cc2)nn(-c2ccc(O)cc2)c1-c1ccc(OCCN2CCCCC2)cc1,,"inconclusive: 25.1 µM [falling, partial curve, poor fit]"
O=CN1CCN(C[C@H](O)CN2CCCCC2)CC1,inactive: 19.6% [at 7.6 µM],
O=C(c1ccncc1)N1CCC2(CC1)CN(C(c1ccccc1)c1ccccc1)C2,inactive: -14.4%,
O=[N+]([O-])c1ccccc1Nc1ccccc1,inactive: 2.98%,
COc1ccc(Cl)cc1N=Nc1ncc[nH]1,inconclusive: -10.9%,
COc1nc(N(c2ccccc2)c2ccccc2)nc(-n2ccnc2)n1,,active: 6.31 µM
CCOC(=O)N1CCN(c2c(F)cc3[nH]c(=S)[nH]c3c2Br)CC1,,"inconclusive: 25.1 µM [rising, single point]"
COc1ccccc1N1CCN(c2cc(=O)n(-c3ccc(Br)cc3)c(=O)[nH]2)CC1,inconclusive: -22.2%,
Nc1nc(SCCc2ccccc2)c2[nH]cnc2n1,inactive: -0.688% [at 7.6 µM],
Cc1ccc2nc3c(cc2c1)c(NC(=O)c1cccnc1)nn3C,,"inconclusive: 7.94 µM [rising, partial curve]"
COCCN(C(=O)Cc1cccs1)c1nnc(-c2ccncc2)s1,inconclusive: -24.2%,
O=C(Nc1sc2c(c1C(=O)NCc1ccco1)CCCC2)c1ccc2c(c1)OCO2,,"inconclusive: 12.6 µM [rising, partial curve]"
Cc1cn2c(nc1=O)OC1C(O)C(COC(=O)c3ccccc3)OC12 (stereo not drawn),inconclusive: -9.08%,

SMILES,"activity change, negative = inhibition",Potency
O=C(Nc1cccc(F)c1)N1CCCC2(CCN(C(=O)c3cc(C(F)(F)F)cc(C(F)(F)F)c3)CC2)C1,,"inconclusive: 25.1 µM [rising, single point]"
CCOc1nc(NCCc2ccc(OC)c(OC)c2)nc(NC(C)(C)CO)n1,inconclusive: 28.6%,
CCOC(=O)Cc1csc(SCC(=O)Nc2sc3c(c2C(N)=O)CCC3)n1,inactive: -0.361%,
Cc1ccc(S(=O)(=O)N2CCN(C(=O)CSc3nnnn3C)C2)cc1,inconclusive: 6.44%,
C=C(C)Cn1c(=O)c2c(nc3n2CCN3c2cccc(Cl)c2C)n(C)c1=O,inconclusive: 22.2%,
CN1CCN(c2ccc(NC(=O)COc3ccccc3Cl)cc2)CC1,inconclusive: 2%,
CC1CCCCN1c1nnc(NC(=O)Cn2c(=O)oc3ccccc32)s1 (stereo not drawn),,"inconclusive: 15.8 µM [rising, single point]"
CC(C)Oc1nc(-c2ccccc2O)nc2ccccc12,,"inconclusive: 2.51 µM [rising, full curve]"
O=C1NC(=O)c2c(NC(=O)C3CCCO3)cccc21 (stereo not drawn),inconclusive: 1.71%,
O=C(O)c1cncc(C(=O)O)c1,inconclusive: 19% [at 7.6 µM],
Cc1ccc(-c2nnc(SCC#N)n2N)cc1,inconclusive: -6.69%,
O=C1c2sc3nc4c(c(=O)n3c2C(=O)N1c1ccccc1)CCC4,inactive: 8.02%,
CN(C)c1nc(N)nc(Cn2ccnc2)n1,,active: 6.31 µM
O=C(Nc1ccc(Cl)cc1)Nc1ccc2c(c1)N1CCN=C1S2,,"inconclusive: 10 µM [rising, partial curve]"
O=C(NC(Cc1ccc2c(c1)OCO2)C(=O)N1CCCC1C(=O)O)c1ccccc1 (stereo not drawn),inconclusive: 4.14% [at 7.6 µM],
COc1ccc(-n2nc(C(=O)NCC(=O)NCc3ccco3)c3ccccc3c2=O)cc1,inconclusive: 10.3%,
COc1ccccc1CNc1ncncc1-c1ccccc1C(F)(F)F,inactive: 7.52%,
CCOc1ccc(CCNC(=O)Cc2nn[nH]n2)cc1OCC,,"inconclusive: 0.0316 µM [rising, full curve]"
CC(n1cnnn1)C12CC3CC(CC(C3)C1)C2 (stereo not drawn),inconclusive: 24%,
CN(C)CC(CN(C)C)c1ccccn1,inactive: -15.8% [at 7.6 µM],
Cc1cccc(N2CSC3=C(C#N)C(c4ccc(C)o4)CC(=O)N3C2)c1 (stereo not drawn),inconclusive: 3.63%,
CCOC(=O)c1oc2nc(C(C)C)c3c(c2c1N)CCC3,inconclusive: -5.72%,
